“And” between values parts separate entries of the source, which are not always exact repeats. Identical values can stand only once. The whole screen tested about 420,000 compounds, of which about 50,000 (12%) were called active. This list was built around the results that the source calls inconclusive (neither active nor inactive); the mix of calls is not that of the screen. Calls come from the whole dose curve; as a rule, active = well fitted inhibition curve with a large enough effect; inconclusive = small, poorly fitted or top-dose-only effect; inactive = flat fitted curve, though single readings scatter. A potency beside an inconclusive call is a rough fit, not a confirmed value.
Assay: qHTS for Inhibitors of human tyrosyl-DNA phosphodiesterase 1 (TDP1): qHTS in cells in presence of CPT; note: nearly all actives have a fitted effect of over 55% in size
Conditions: chicken DT40 Tdp1-/-;hTDP1 cells + 20 nM CPT, ATP luminescence, 48 h; activity change, negative = growth inhibition: at 46.2 µM (top of the series) unless noted
Outline: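 Chicken DT40 Tdp1-/- cells complemented with human TDP1, 400 cells/well, exposed to compounds plus 20 nM camptothecin for at least 48 h at 37 C; viability read as ATP content by CellTiter-Glo luminescence.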
% is set by controls: 0 for no effect and ±100 for the full control effect; potency is the fitted concentration of half-maximal effect; tags give direction and shape of the fitted curve.

| Compound | Potency | activity change, negative = growth inhibition |
| --- | --- | --- |
| CN1CCN(C(=O)c2cc3c(s2)-c2ccccc2S(=O)(=O)C3)CC1 | inactive |  |
| CC(Oc1ccc2c(c1)c1ccnc3c4ccccc4c(=O)n2c13)C(=O)NCCN1CCOCC1 (configuration not stated) | active: 8.2 µM |  |
| O=C(CCCN1C(=O)/C(=C/c2ccccc2)SC1=S)Nc1ccccc1O | inconclusive: 29.1 µM [inhibitor, single point] |  |
| COCCNC(=O)c1cccc2c(-c3ccnn3C)coc12 | inconclusive: 14.6 µM [inhibitor, partial curve] |  |
| CC1(C(=O)NC2CCN(Cc3ccccc3)CC2)CCN1Cc1cc2ccccc2o1 (configuration not stated) | inconclusive: 18.4 µM [inhibitor, single point] |  |
| O=C(Nc1ccc2c(c1)OCO2)C1CCN(S(=O)(=O)c2cccc3cccnc23)CC1 | inactive |  |
| Cc1[nH]nc(N=CC2=C(O)CC(C)(C)CC2=O)c1-c1ccccc1 | inconclusive: 18.4 µM [inhibitor, partial curve, poor fit] |  |
| O=C1NC[C@H](CCCCN2C[C@H](Cc3ccccc3)N(CC3CCCCC3)C(=O)C2=O)N(CC2CCCCC2)C1=O | inconclusive: 29.1 µM [inhibitor, single point] |  |
| O=C1NC(=O)C2(N1)C(=O)c1cccc3cccc2c13 (configuration not stated) | inactive |  |
| Cc1ccc(NC(=O)Cn2c(=O)n(CC(=O)NCCc3ccccc3)c(=O)c3ccccc32)cc1C | inconclusive: 2.06 µM [inhibitor, full curve] |  |
| Cc1cccc(-c2noc(CCC(=O)NCc3ccco3)n2)c1 |  | inconclusive: -32.2% [inhibitor] |
| Cc1c(/C=N/Nc2ccc([N+](=O)[O-])cn2)c2ccccc2n1Cc1ccccc1 | inconclusive: 16.4 µM [inhibitor, single point] |  |
| COc1cc(SC)ccc1C(=O)OCC(=O)NCCNC(=O)COC(=O)c1ccc(SC)cc1OC | inconclusive: 20.6 µM [inhibitor, single point] |  |
| COc1ccc(-c2noc(CCC(=O)Nc3cccc(C)c3C)n2)cc1OC | inconclusive: 23.1 µM [inhibitor, partial curve, poor fit] |  |
| Cc1cc(NC(=O)NC(=O)c2ccccc2NC(=O)C(C)N)ccc1Oc1ncc(Br)cn1 (configuration not stated) | active: 0.651 µM |  |
| C=CCOc1cccc(C2/C(=C(/O)c3ccc(Cl)cc3)C(=O)C(=O)N2CCN2CCOCC2)c1 (configuration not stated) | inactive |  |
| Cc1ccc(-n2nc(C)c3c2OC(N)=C(C#N)C3c2ccc(C)o2)cc1 (configuration not stated) | inconclusive: 18.4 µM [inhibitor, single point] |  |
| CN1C[C@@H]2[C@@H]3C(=O)N(Cc4ccccc4)C(=O)[C@@H]3[C@](Cc3ccccc3)(C1=O)N2C(=O)c1ccc(C(C)(C)C)cc1 | active: 16.4 µM |  |
| Cc1ccc(C(=O)COC(=O)c2cc(-c3cccs3)nc3ccccc23)cc1 | inconclusive: 13 µM [inhibitor, partial curve] |  |
| COc1ccc(CCNC(=O)c2cc3c(=O)n(C)c4cc(Cl)ccc4c3s2)cc1OC | inconclusive: 6.51 µM [inhibitor, single point] |  |
| COc1ccc(-c2[nH]c(-c3ccccc3)nc2SCC(=O)NC2CCCC2)cc1 | active: 23.1 µM |  |

| Compound | Potency | activity change, negative = growth inhibition |
| --- | --- | --- |
| N#Cc1nc(Cc2cccc3ccccc23)oc1NCC1CCCO1 (configuration not stated) | inconclusive: 32.6 µM [inhibitor, partial curve, poor fit] |  |
| COC(=O)C(=O)C/C(=N/Nc1ncnc2ccccc12)c1ccc(Cl)cc1 | inconclusive: 29.1 µM [inhibitor, single point] |  |
| CC1CN(C(=O)CSc2nnc(CNC(=O)c3ccc(S(=O)(=O)N(C)C)cc3)o2)CC(C)O1 (configuration not stated) | inactive |  |
| COc1cccc(N2CCN(CC(=O)C34CC5CC(CC(C5)C3)C4)CC2)c1 | inactive |  |
| CCC1CN(C(=O)NCc2cccc(OC)c2)c2ccccc2O1 (configuration not stated) | inconclusive: 29.1 µM [inhibitor, single point] and inconclusive: 23.1 µM [inhibitor, single point] |  |
| Oc1c(C(Nc2cccc(C(F)(F)F)c2)c2cccnc2)ccc2cccnc12 (configuration not stated) | inconclusive: 25.9 µM [inhibitor, single point] |  |
| CC(C)(O)C#Cc1ccc(C(=O)N2CCCC(CNS(=O)(=O)c3cccs3)C2)o1 (configuration not stated) | inconclusive: 29.1 µM [inhibitor, single point] |  |
| Cn1c(=Nc2ccc(N3CCOCC3)cc2)ccc2ccccc21 | inconclusive: 29.1 µM [inhibitor, single point] |  |
| COc1ccc(S(=O)(=O)N(C)C(C)CCc2ccco2)cc1 (configuration not stated) | inconclusive: 29.1 µM [inhibitor, single point] |  |
| Cc1cc(C)cc(OC(C)c2ccnc3nc(/N=C/N(C)C)nn23)c1 (configuration not stated) | inconclusive: 10.3 µM [inhibitor, partial curve, poor fit] |  |
| O=S1(=O)c2ccccc2N(Cc2ccccc2Cl)c2ccccc21 | inconclusive: 29.1 µM [inhibitor, single point] |  |
| COC(=O)c1ccccc1NC(=O)Oc1ccc(F)cc1 | inactive |  |
| COc1cccc(NC(=O)[C@H](NC(=O)[C@@H]2Cc3ccccc3CN2)c2ccccc2)c1 | inactive |  |
| COc1ccccc1C(O)(C(=O)NNc1cccc(C)c1)c1ccccc1OC | inconclusive: 20.6 µM [inhibitor, single point] |  |
| CC(C)Nc1nc(NC(C)C)nc(SCCOC(=O)Nc2ccc(Cl)cc2Cl)n1 | inconclusive: 23.1 µM [inhibitor, single point] |  |
| O=c1oc2c3c4c(cc2c2c1CCC2)OCCN4CCC3 | active: 18.4 µM |  |
| CCc1ccccc1NNC(=O)c1sccc1Cl | inconclusive: 35.5 µM [inhibitor, single point] |  |
| COc1ccccc1NS(=O)(=O)c1cc(NC(=O)c2ccccc2[N+](=O)[O-])ccc1N1CCOCC1 | inconclusive: 23.1 µM [inhibitor, partial curve] |  |
| Cc1cc(NC(=O)COC(=O)/C=C/c2ccc(C)o2)no1 | inactive |  |
| O=C(NNC(=S)Nc1cccc(C(F)(F)F)c1)c1ccncc1 | inactive |  |
| CCC1CN(Cc2cccn2-c2ccccn2)Cc2cc(OC)ccc2O1 (configuration not stated) |  | inactive: -9.12% [at 9.04 µM] |

From PubChem BioAssay AID686979 (National Center for Advancing Translational Sciences (NCATS), 2013)
